The source of these data is PubChem BioAssay AID360 (National Center for Advancing Translational Sciences (NCATS), 2006).

Screen size: about 48,000 compounds; about 550 (1.1%) were called active. Inconclusive results (about 4%) are left out. No stated cut-off is given here; in the data, active means potency below about 15 µM; inconclusive means mostly about 16 µM to 33 µM; inactive means weaker than that. The list shows a part of the results.
Potency means the concentration at half of the fitted maximal effect.

Chain of UniProt P04062 (P04062 whole entry, looked up): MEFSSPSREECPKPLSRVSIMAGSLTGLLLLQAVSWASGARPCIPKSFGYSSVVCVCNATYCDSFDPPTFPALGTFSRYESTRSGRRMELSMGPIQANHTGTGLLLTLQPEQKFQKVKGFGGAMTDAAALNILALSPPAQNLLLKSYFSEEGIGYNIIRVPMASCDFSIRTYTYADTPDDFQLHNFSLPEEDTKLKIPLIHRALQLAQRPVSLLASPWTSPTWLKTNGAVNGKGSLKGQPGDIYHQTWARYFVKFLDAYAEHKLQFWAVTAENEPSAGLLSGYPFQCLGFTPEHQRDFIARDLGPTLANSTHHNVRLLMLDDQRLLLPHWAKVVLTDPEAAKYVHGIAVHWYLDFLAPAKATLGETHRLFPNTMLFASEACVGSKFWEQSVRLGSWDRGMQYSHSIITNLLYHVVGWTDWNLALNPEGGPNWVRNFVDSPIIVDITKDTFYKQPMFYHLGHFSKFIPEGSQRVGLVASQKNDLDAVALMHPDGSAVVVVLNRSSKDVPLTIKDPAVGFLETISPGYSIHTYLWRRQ

For this assay, the target named is Lysosomal acid glucosylceramidase (Homo sapiens) (UniProt P04062). In words: Glucocerebrosidase.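 Further: the screen sought inhibitors.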 To be noted: purified enzyme, resorufin glucoside fluorescence (screen aimed at inhibitors), 20 min. The essentials:
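Normal human glucocerebrosidase (0.2 nM final) was assayed with resorufin β-D-glucopyranoside (30 uM final) in 50mM citric acid/KH2PO4, 10mM sodium taurocholate, 0.01% tween-20, pH 5.9. Compounds were titrated; fluorescence (Ex 548, Em 600) read after 20 min at RT.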
Take `CC(NS(=O)(=O)c1ccccc1)C(=O)Nc1ccc(S(N)(=O)=O)cc1` (stereo not drawn): the Potency was inactive: > 76.9 µM.

`O=C(Nc1ccc(O)cc1C(=O)O)c1cccc(Br)c1`: the Potency was inactive: > 76.9 µM.

Consider `CCOC(=O)C1=C(C)Nc2ncnn2C1c1ccc(N(C)C)cc1` (stereo not drawn), for which the Potency is inactive: > 76.9 µM.

As for `Cc1cc(N2CCC(C(=O)NCC3CC3)CC2)nc(-c2ccccc2)n1`, the Potency result was “inactive”.

`CCCCOc1cc(=O)[nH]c(=O)[nH]1`: the Potency is inactive: > 76.9 µM.

Turning to `COc1ccc(NC(=O)CSc2nnc(CNC(=O)c3ccco3)o2)c(OC)c1`, the Potency is inactive: > 76.9 µM.

For the compound `CCn1c(-c2ccco2)nc2ccccc21`, the Potency was inactive: > 76.9 µM.

Take `COc1cccc(CNC(=O)C(CCSC)NS(=O)(=O)c2ccc3c(c2)oc(=O)n3C)c1` (stereo not drawn): the Potency was inactive: > 76.9 µM.

On to `CN1C(=O)N(C)C(NC(=O)Nc2ccccc2)C1NC(=O)Nc1ccccc1` (stereo not drawn), for which the Potency is inactive: > 76.9 µM.

Turning to `c1ccc(CCc2nn3c(Cn4cnc5ccccc54)nnc3s2)cc1`, the Potency was inactive: > 76.9 µM.

As for `CC(C)C(c1nnnn1C1CCCC1)N(C)C1CCCCC1` (stereo not drawn), the Potency is inactive: > 76.9 µM.

As to `O=C(CSc1nc2c(sc3ccccc32)c(=O)n1Cc1ccco1)NCC1CCCO1` (stereo not drawn), the Potency was inactive: > 76.9 µM.

Turning to `C=CCNC(=O)c1ccc(OC)cc1OC`, the Potency was inactive: > 76.9 µM.

Consider `CCOC(=O)C1CCN(S(=O)(=O)c2cc(Cl)c(C)cc2OC)CC1`, for which the Potency was inactive: > 76.9 µM.

For `O=C(NCc1ccncc1)c1ccc(Cl)c(S(=O)(=O)N2CCOCC2)c1`, the Potency is inactive: > 76.9 µM.

`COc1ccc(CC(=O)Nc2cccc(C(=O)O)c2C)cc1`: the Potency is inactive: > 76.9 µM.

In the case of `O=C(CSc1nnc(-c2ccc(Br)o2)n1Cc1ccccc1)c1ccccc1F`, the Potency was inactive: > 76.9 µM.

For the compound `O=C(CSc1ccc2nnc(-c3ccccc3)n2n1)NCC1CCCO1` (stereo not drawn), the Potency is inactive: > 76.9 µM.

For `COc1ccc(S(=O)(=O)Nc2ccccc2C(=O)NCc2ccco2)cc1Br`, the Potency entry was “inactive”.

As to `CC(NC(=O)c1cncc(Br)c1)c1ccc(S(N)(=O)=O)cc1` (stereo not drawn), the Potency was inactive: > 76.9 µM.

Turning to `CCc1nc(N[C@@H](Cc2c[nH]c3ccccc23)C(=O)O)c2oc3ccccc3c2n1`, the Potency is inactive: > 76.9 µM.

`Cc1ccc(-c2noc(CCC(=O)NCc3ccc4c(c3)OCO4)n2)cc1`: the Potency is inactive: > 76.9 µM.

As to `Cc1c(NS(=O)(=O)c2ccc3c(c2)CCN3C(=O)C2CC2)c(=O)n(-c2ccccc2)n1C`, the Potency was inactive: > 76.9 µM.

As for `CCCCCn1c(=O)[nH]c2cc(C(=O)NCCCN3CCCCC3)ccc2c1=O`, the Potency was inactive: > 76.9 µM.

Regarding `Cc1ccc(C(CC(=O)c2ccco2)SCCO)cc1` (stereo not drawn), the Potency is inactive: > 76.9 µM.

Take `Cn1c2c(c(=O)n(C)c1=O)CN(Cc1ccc3c(c1)OCO3)CN2`: the Potency was inactive: > 76.9 µM.

With `COc1cccc(C(=O)n2cnnc2N)c1OC`, the Potency is inactive: > 76.9 µM.

Regarding `Cc1c(C#N)c(SCC(N)=O)nc2c1CCCC2`, the Potency was inactive: > 76.9 µM.

For the compound `O=C(OCc1nnc(-c2ccccc2)o1)c1ccc2ccccc2n1`, the Potency was inactive: > 76.9 µM.

Take `CC1CCN(CCc2nc3cc(NS(=O)(=O)c4ccccc4)ccc3n2C)CC1`: the Potency is inactive: > 76.9 µM.

Take `O=C(Cn1cccc1C(=O)c1ccccc1)NCc1ccc2c(c1)OCO2`: the Potency was inactive: > 76.9 µM.

Turning to `Cc1ccc(-c2nc(C#N)c(NCCc3ccccn3)o2)cc1`, the Potency was inactive: > 76.9 µM.

Turning to `COc1ccccc1NC(=O)C1=C(C)Nc2nnnn2C1c1ccncc1` (stereo not drawn), the Potency result was “inactive”.

Consider `Cc1cc(S(=O)(=O)N2CCCC2)ccc1OCC(=O)N1CCOCC1`, for which the Potency was inactive: > 76.9 µM.

`COc1ccc(-c2csc(/C(C#N)=C(\O)CSc3nccn3C)n2)cc1OC`: the Potency was inactive: > 76.9 µM.

For the compound `N#C[C@@H]1[C@@H]2C(=O)N(c3ccc4c(c3)OCCO4)C(=O)[C@@H]2C2c3ccccc3C=CN21` (stereo partly drawn), the Potency is inactive: > 76.9 µM.

With `Cc1ccc(-n2c(=O)[nH]c3c(C(N)=O)nc(CC(C)C)nc32)cc1`, the Potency was inactive: > 76.9 µM.

Turning to `Cc1cccc(NC(=O)COc2ccccc2)c1`, the Potency was inactive: > 76.9 µM.

As to `CCOC(=O)c1[nH]c2ccc(OC)cc2c1NC(=O)C(C)N1CCSCC1` (stereo not drawn), the Potency is inactive: > 76.9 µM.

Take `O=C(CN1C(=O)c2ccccc2S1(=O)=O)N1CCN(Cc2ccc3c(c2)OCO3)CC1`: the Potency was inactive: > 76.9 µM.

Turning to `CCc1c(C)sc(NC(=O)c2ccco2)c1C(=O)N1CCCCC1`, the Potency is inactive: > 76.9 µM.

Regarding `CCCN(Cc1cc2ccc(C)cc2[nH]c1=O)C(=O)c1ccccn1`, the Potency is inactive: > 76.9 µM.

For `Cc1cc(=O)oc(C)c1C(=O)N1CCN(C(c2ccccc2)c2ccccc2)CC1`, the Potency is inactive: > 76.9 µM.

As for `O=S1(=O)CCC(NCC2CCCO2)C1` (stereo not drawn), the Potency was inactive: > 76.9 µM.

For the compound `COc1ccc(S(=O)(=O)NCCC(=O)NC2CCCCCCC2)cc1`, the Potency is inactive: > 76.9 µM.

In the case of `COC(=O)CSc1nnc(CCc2nc3ccccc3[nH]2)n1C`, the Potency was inactive: > 76.9 µM.

`COc1ccc(OCCSc2nnnn2C2CCCCC2)cc1`: the Potency was inactive: > 76.9 µM.

For the compound `CCOc1ccc(N2C(=O)CCC2=O)cc1`, the Potency was inactive: > 76.9 µM.

Consider `CCN(CCCNC(=O)C1CCN(S(=O)(=O)c2cccc3nonc23)CC1)Cc1ccccc1`, for which the Potency is inactive: > 76.9 µM.

Turning to `COc1ccccc1OCC(O)Cn1c(=N)n(CCN2CCCCC2)c2ccccc21` (stereo not drawn), the Potency is inactive: > 76.9 µM.

Consider `COc1ccc(Cc2nc(-c3ccccc3)no2)cc1`, for which the Potency was inactive: > 76.9 µM.

In the case of `CCN(CC)S(=O)(=O)c1cccc(C(=O)Nc2ccc(C#N)cc2)c1`, the Potency was inactive: > 76.9 µM.

Turning to `Cc1cc(NC(=O)c2ccccc2)ncc1NC(=O)c1ccco1`, the Potency was inactive: > 76.9 µM.

For `COc1ccc(C2C(C(=O)NC(C)C)c3ccccc3C(=O)N2C)cc1OC` (stereo not drawn), the Potency was inactive: > 76.9 µM.

With `COc1cc(NC(=O)CCc2ccccc2)nc(OC)n1`, the Potency is inactive: > 76.9 µM.

`O=C(C1CCN(S(=O)(=O)N2CCC3(CC2)OCCO3)CC1)N1CCN(Cc2ccccc2)CC1`: the Potency is inactive: > 76.9 µM.

As for `Cc1ccccc1OCC(=O)Nc1cccc(N(C)S(C)(=O)=O)c1`, the Potency was inactive: > 76.9 µM.

`CCCn1c(SCC(=O)NCc2ccco2)nnc1C(C)C`: the Potency was inactive: > 76.9 µM.
